# According to the antibiotic and cytotoxicity screens of Wong et al. (2023):
# The other results are listed elsewhere or left out.
# Key:
# HSkMC = human skeletal muscle cells; test: cytotoxicity call (relative viability < 0.9); details: 10 µM
# HepG2 = test: cytotoxicity call (relative viability < 0.9); details: 10 µM
# S. aureus RN4220 = test: growth inhibition call (relative growth <= 0.2); details: 50 µM
Compound,cytotoxicity call (HSkMC),cytotoxicity call (HepG2),growth inhibition call (S. aureus RN4220)
C[C@@H](N)[C@H]1CC[C@H](C(=O)Nc2ccncc2)CC1,inactive,inactive,inactive
C[C@H]1CN([C@@H](C)CO)C(=O)Cc2cc(NC(=O)Nc3cccc4ccccc34)ccc2O[C@H]1CN(C)Cc1ccc(Oc2ccccc2)cc1,inactive,active,inactive
C[C@H]1CN([C@@H](C)CO)S(=O)(=O)c2ccc(/C=C/c3ccccc3)cc2O[C@H]1CN(C)C(=O)CN1CCOCC1,inactive,inactive,inactive
Cc1noc(C)c1NC(=O)Nc1ccc2c(c1)C(=O)N([C@H](C)CO)C[C@@H](C)[C@H](CN(C)C(=O)Nc1cccc3ccccc13)OCCCC[C@@H](C)O2,inactive,inactive,inactive
CC(C)NC(=O)N(C)C[C@H]1OCCCC[C@@H](C)Oc2ccc(NS(=O)(=O)c3cn(C)cn3)cc2C(=O)N([C@H](C)CO)C[C@@H]1C,inactive,inactive,inactive
C[C@H]1CN([C@@H](C)CO)S(=O)(=O)c2ccc(C#Cc3cccnc3)cc2O[C@@H]1CN(C)C(=O)CN(C)C,inactive,inactive,inactive
O=C(C[C@H]1CC[C@H]2[C@@H](COC[C@H](O)CN2C(=O)c2cccnc2)O1)NCC1CC1,inactive,inactive,inactive
CCC(=O)NS(=O)(=O)c1ccccc1,inactive,inactive,inactive
Cn1cc(S(=O)(=O)N2CCN(Cc3ccccc3)CC2)c(=O)n(C)c1=O,inactive,inactive,inactive
C[C@@H]1CN([C@H](C)CO)C(=O)c2cc(NC(=O)Cn3cnnn3)ccc2O[C@@H]1CN(C)Cc1ccc(Cl)c(Cl)c1,inactive,inactive,inactive
Cc1ccc(C(=O)O)c(=O)n1C,inactive,inactive,inactive
Cc1cc(C(=O)Nc2cccc3c2O[C@@H](CN(C)S(=O)(=O)c2cccs2)[C@H](C)CN([C@@H](C)CO)C3=O)n(C)n1,inactive,inactive,inactive
O=C(C[C@@H]1CC[C@H]2[C@@H](COC[C@H](O)CN2C(=O)c2ccccc2)O1)N1CCOCC1,inactive,inactive,inactive
C[C@@H]1CN([C@H](C)CO)C(=O)c2cc(NC(=O)Cc3ccccc3)ccc2O[C@@H](C)CCCCO[C@H]1CN(C)C(=O)c1ccccc1,inactive,inactive,inactive
C[C@@H]1CCCCO[C@@H](CN(C)C)[C@@H](C)CN([C@H](C)CO)C(=O)c2cc(NC(=O)CCCCCC(=O)Nc3ccccc3N)ccc2O1,inactive,inactive,inactive
C[C@H]1CN([C@@H](C)CO)C(=O)c2cccc(NC(=O)Nc3ccc(C(F)(F)F)cc3)c2O[C@@H]1CN(C)Cc1ccc(C(=O)O)cc1,inactive,inactive,inactive
COc1ccc(NC(=O)Nc2ccc3c(c2)C(=O)N([C@@H](C)CO)C[C@H](C)[C@H](CN(C)C(=O)C2CCCCC2)OCCCC[C@H](C)O3)cc1,inactive,active,inactive
C[C@@H]1CN([C@@H](C)CO)C(=O)c2cc(NS(=O)(=O)c3ccccc3)ccc2O[C@@H](C)CCCCO[C@H]1CN(C)S(=O)(=O)c1ccc(Cl)cc1,inactive,inactive,inactive
NC(=O)C(C(N)=O)[C@H]1CCS(=O)(=O)C1,inactive,inactive,inactive
Cc1noc(C)c1S(=O)(=O)Nc1ccc2c(c1)C(=O)N([C@@H](C)CO)C[C@H](C)[C@@H](CN(C)C(=O)NC(C)C)O2,inactive,inactive,inactive
Cc1noc(C)c1NC(=O)N[C@H]1CC[C@H](CC(=O)N2CCN(C)CC2)O[C@H]1CO,inactive,inactive,inactive
C[C@@H]1CCCCO[C@H](CN(C)Cc2ccc3c(c2)OCO3)[C@@H](C)CN([C@H](C)CO)C(=O)c2cc(NC(=O)CCC(F)(F)F)ccc2O1,inactive,inactive,inactive
COC(=O)[C@@H]1[C@@H](CO)[C@@H]2Cn3c(ccc(-c4cncnc4)c3=O)[C@@H]2N1C(=O)C1CCC1,inactive,inactive,inactive
Cc1ccc(S(=O)(=O)Nc2ccc3c(c2)C(=O)N([C@H](C)CO)C[C@H](C)[C@H](CN(C)CC2CC2)O3)cc1,inactive,inactive,inactive
C[C@H](CO)N1C[C@H](C)[C@H](CN(C)CC2CCCCC2)OCCCC[C@H](C)Oc2ccc(NC(=O)Nc3ccc4c(c3)OCO4)cc2C1=O,inactive,active,inactive
Cc1ccccc1-c1ccc2c(c1)O[C@@H](CN(C)C(=O)Nc1ccc(C(F)(F)F)cc1)[C@H](C)CN([C@@H](C)CO)S2(=O)=O,inactive,inactive,inactive
